# Assay results published in the supplement of paper PMC8728848.
# The list shows a part of the results.
# How the values were obtained:
# Assay in all cases: glycan array binding signal (z-score within array); higher = stronger binding
# Conditions in all cases: glycan notation: IUPAC condensed, linker removed
# [1] = molecular target: Gal(b1-4)GlcNAc(b1-3)Gal(b1-3)GalNAc
# How it was run: (§1)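 Columns mapping to the same glycan were averaged after glycan names were converted to IUPAC-condensed notation. The data come from 3228 arrays in the Consortium for Functional Glycomics database, limited to those with an available protein sequence. Binding is reported as a within-array Z-score averaged across arrays of one protein sequence and across linkers.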
# [2] = molecular target: Gal(b1-4)GlcNAc(b1-3)Gal(b1-3)GlcNAc
# How it was run: as §1
# [3] = molecular target: Gal(b1-4)GlcNAc(b1-3)Gal(b1-4)Glc
# How it was run: as §1
# [4] = molecular target: Gal(b1-4)GlcNAc(b1-3)Gal(b1-4)GlcNAc
# How it was run: as §1
# [5] = molecular target: Gal(b1-4)GlcNAc(b1-3)Gal(b1-4)GlcNAc(b1-2)Man(a1-3)[Gal(b1-4)GlcNAc(b1-3)Gal(b1-4)GlcNAc(b1-2)Man(a1-6)]Man(b1-4)GlcNAc(b1-4)GlcNAc
# How it was run: as §1
# [6] = molecular target: Gal(b1-4)GlcNAc(b1-3)Gal(b1-4)GlcNAc(b1-2)Man(a1-3)[Gal(b1-4)GlcNAc(b1-3)Gal(b1-4)GlcNAc(b1-2)Man(a1-6)]Man(b1-4)GlcNAc(b1-4)[Fuc(a1-6)]GlcNAc
# How it was run: as §1
# [7] = molecular target: Gal(b1-4)GlcNAc(b1-3)Gal(b1-4)GlcNAc(b1-2)[Gal(b1-4)GlcNAc(b1-3)Gal(b1-4)GlcNAc(b1-6)]Man(a1-6)[Gal(b1-4)GlcNAc(b1-3)Gal(b1-4)GlcNAc(b1-2)Man(a1-3)]Man(b1-4)GlcNAc(b1-4)GlcNAc
# How it was run: as §1
# [8] = molecular target: Gal(b1-4)GlcNAc(b1-3)Gal(b1-4)GlcNAc(b1-2)[Gal(b1-4)GlcNAc(b1-3)Gal(b1-4)GlcNAc(b1-6)]Man(a1-6)[Gal(b1-4)GlcNAc(b1-3)Gal(b1-4)GlcNAc(b1-2)Man(a1-3)]Man(b1-4)GlcNAc(b1-4)[Fuc(a1-6)]GlcNAc
# How it was run: as §1
# [9] = molecular target: Gal(b1-4)GlcNAc(b1-3)Gal(b1-4)GlcNAc(b1-3)Gal(b1-4)GlcNAc
# How it was run: as §1
# [10] = molecular target: Gal(b1-4)GlcNAc(b1-3)Gal(b1-4)GlcNAc(b1-3)Gal(b1-4)GlcNAc(b1-2)Man(a1-3)[Gal(b1-4)GlcNAc(b1-3)Gal(b1-4)GlcNAc(b1-3)Gal(b1-4)GlcNAc(b1-2)Man(a1-6)]Man(b1-4)GlcNAc(b1-4)GlcNAc
# How it was run: as §1
# [11] = molecular target: Gal(b1-4)GlcNAc(b1-3)Gal(b1-4)GlcNAc(b1-3)Gal(b1-4)GlcNAc(b1-2)Man(a1-3)[Gal(b1-4)GlcNAc(b1-3)Gal(b1-4)GlcNAc(b1-3)Gal(b1-4)GlcNAc(b1-2)Man(a1-6)]Man(b1-4)GlcNAc(b1-4)[Fuc(a1-6)]GlcNAc
# How it was run: as §1
# [12] = molecular target: Gal(b1-4)GlcNAc(b1-3)Gal(b1-4)GlcNAc(b1-3)Gal(b1-4)GlcNAc(b1-2)[Gal(b1-4)GlcNAc(b1-3)Gal(b1-4)GlcNAc(b1-3)Gal(b1-4)GlcNAc(b1-6)]Man(a1-6)[Gal(b1-4)GlcNAc(b1-3)Gal(b1-4)GlcNAc(b1-3)Gal(b1-4)GlcNAc(b1-2)Man(a1-3)]Man(b1-4)GlcNAc(b1-4)[Fuc(a1-6)]GlcNAc
# How it was run: as §1
# [13] = molecular target: Gal(b1-4)GlcNAc(b1-3)Gal(b1-4)GlcNAc(b1-3)Gal(b1-4)GlcNAc(b1-3)Gal(b1-4)GlcNAc(b1-2)Man(a1-3)[Gal(b1-4)GlcNAc(b1-3)Gal(b1-4)GlcNAc(b1-3)Gal(b1-4)GlcNAc(b1-3)Gal(b1-4)GlcNAc(b1-2)Man(a1-6)]Man(b1-4)GlcNAc(b1-4)GlcNAc
# How it was run: as §1
# [14] = molecular target: Gal(b1-4)GlcNAc(b1-3)Gal(b1-4)GlcNAc(b1-3)Gal(b1-4)GlcNAc(b1-3)Gal(b1-4)GlcNAc(b1-2)Man(a1-3)[Gal(b1-4)GlcNAc(b1-3)Gal(b1-4)GlcNAc(b1-3)Gal(b1-4)GlcNAc(b1-3)Gal(b1-4)GlcNAc(b1-2)Man(a1-6)]Man(b1-4)GlcNAc(b1-4)[Fuc(a1-6)]GlcNAc
# How it was run: as §1
# [15] = molecular target: Gal(b1-4)GlcNAc(b1-3)Gal(b1-4)GlcNAc(b1-3)Gal(b1-4)GlcNAc(b1-3)Gal(b1-4)GlcNAc(b1-2)[Gal(b1-4)GlcNAc(b1-3)Gal(b1-4)GlcNAc(b1-3)Gal(b1-4)GlcNAc(b1-3)Gal(b1-4)GlcNAc(b1-6)]Man(a1-6)[Gal(b1-4)GlcNAc(b1-3)Gal(b1-4)GlcNAc(b1-3)Gal(b1-4)GlcNAc(b1-3)Gal(b1-4)GlcNAc(b1-2)Man(a1-3)]Man(b1-4)GlcNAc(b1-4)[Fuc(a1-6)]GlcNAc
# How it was run: as §1
# [16] = molecular target: Gal(b1-4)GlcNAc(b1-3)Gal(b1-4)GlcNAc(b1-3)Gal(b1-4)GlcNAc(b1-3)Gal(b1-4)GlcNAc(b1-3)Gal(b1-4)GlcNAc(b1-2)Man(a1-3)[Gal(b1-4)GlcNAc(b1-3)Gal(b1-4)GlcNAc(b1-3)Gal(b1-4)GlcNAc(b1-3)Gal(b1-4)GlcNAc(b1-3)Gal(b1-4)GlcNAc(b1-2)Man(a1-6)]Man(b1-4)GlcNAc(b1-4)GlcNAc
# How it was run: as §1
# [17] = molecular target: Gal(b1-4)GlcNAc(b1-3)Gal(b1-4)GlcNAc(b1-3)Gal(b1-4)GlcNAc(b1-3)Gal(b1-4)GlcNAc(b1-3)Gal(b1-4)GlcNAc(b1-2)Man(a1-3)[Gal(b1-4)GlcNAc(b1-3)Gal(b1-4)GlcNAc(b1-3)Gal(b1-4)GlcNAc(b1-3)Gal(b1-4)GlcNAc(b1-3)Gal(b1-4)GlcNAc(b1-2)Man(a1-6)]Man(b1-4)GlcNAc(b1-4)[Fuc(a1-6)]GlcNAc
# How it was run: as §1
# [18] = molecular target: Gal(b1-4)GlcNAc(b1-3)Gal(b1-4)GlcNAc(b1-3)Gal(b1-4)GlcNAc(b1-3)Gal(b1-4)GlcNAc(b1-3)Gal(b1-4)GlcNAc(b1-2)[Gal(b1-4)GlcNAc(b1-3)Gal(b1-4)GlcNAc(b1-3)Gal(b1-4)GlcNAc(b1-3)Gal(b1-4)GlcNAc(b1-3)Gal(b1-4)GlcNAc(b1-6)]Man(a1-6)[Gal(b1-4)GlcNAc(b1-3)Gal(b1-4)GlcNAc(b1-3)Gal(b1-4)GlcNAc(b1-3)Gal(b1-4)GlcNAc(b1-3)Gal(b1-4)GlcNAc(b1-2)Man(a1-3)]Man(b1-4)GlcNAc(b1-4)[Fuc(a1-6)]GlcNAc
# How it was run: as §1
# [19] = molecular target: Gal(b1-4)GlcNAc(b1-3)Gal(b1-4)GlcNAc(b1-3)Gal(b1-4)GlcNAc(b1-3)Gal(b1-4)GlcNAc(b1-3)Gal(b1-4)GlcNAc(b1-3)Gal(b1-4)GlcNAc(b1-2)Man(a1-3)[Gal(b1-4)GlcNAc(b1-3)Gal(b1-4)GlcNAc(b1-3)Gal(b1-4)GlcNAc(b1-3)Gal(b1-4)GlcNAc(b1-3)Gal(b1-4)GlcNAc(b1-3)Gal(b1-4)GlcNAc(b1-2)Man(a1-6)]Man(b1-4)GlcNAc(b1-4)GlcNAc
# How it was run: as §1
# [20] = molecular target: Gal(b1-4)GlcNAc(b1-3)Gal(b1-4)GlcNAc(b1-3)GalNAc
# How it was run: as §1
# [21] = molecular target: Gal(b1-4)GlcNAc(b1-3)Gal(b1-4)GlcNAc(b1-3)[Gal(b1-4)GlcNAc(b1-3)Gal(b1-4)GlcNAc(b1-6)]GalNAc
# How it was run: as §1
# [22] = molecular target: Gal(b1-4)GlcNAc(b1-3)Gal(b1-4)GlcNAc(b1-6)[Gal(b1-3)]GalNAc
# How it was run: as §1
# [23] = molecular target: Gal(b1-4)GlcNAc(b1-3)Gal(b1-4)[Fuc(a1-3)]GlcNAc(b1-3)Gal(b1-4)[Fuc(a1-3)]GlcNAc
# How it was run: as §1
# [24] = molecular target: Gal(b1-4)GlcNAc(b1-3)GalNAc
# How it was run: as §1
# [25] = molecular target: Gal(b1-4)GlcNAc(b1-3)[Fuc(a1-3)GlcNAc(b1-6)]Gal(b1-4)Glc
# How it was run: as §1
# [26] = molecular target: Gal(b1-4)GlcNAc(b1-3)[Gal(b1-4)GlcNAc(b1-6)]Gal(b1-4)GlcNAc
# How it was run: as §1
# [27] = molecular target: Gal(b1-4)GlcNAc(b1-3)[Gal(b1-4)GlcNAc(b1-6)]GalNAc
# How it was run: as §1
# [28] = molecular target: Gal(b1-4)GlcNAc(b1-3)[GlcNAc(b1-6)]Gal(b1-4)GlcNAc
# How it was run: as §1
# [29] = molecular target: Gal(b1-4)GlcNAc(b1-6)Gal(b1-4)GlcNAc
# How it was run: as §1
# [30] = molecular target: Gal(b1-4)GlcNAc(b1-6)Gal(b1-4)GlcNAc(b1-6)GalNAc
# How it was run: as §1
# [31] = molecular target: Gal(b1-4)GlcNAc(b1-6)GalNAc
# How it was run: as §1
# [32] = molecular target: Gal(b1-4)GlcNAc(b1-6)[Gal(b1-3)]GalNAc
# How it was run: as §1
# [33] = molecular target: Gal(b1-4)GlcNAc(b1-6)[Gal(b1-4)GlcNAc(b1-3)]GalNAc
# How it was run: as §1
# Gal(b1-4)GlcNAc6P = molecular target: Gal(b1-4)GlcNAc6P
# How it was run: as §1
# Gal(b1-6)Gal = molecular target: Gal(b1-6)Gal
# How it was run: as §1
# Gal3S(b1-3)GalNAc = molecular target: Gal3S(b1-3)GalNAc
# How it was run: as §1
# Gal3S(b1-3)GlcNAc = molecular target: Gal3S(b1-3)GlcNAc
# How it was run: as §1
binder,measurement,setting,value
"LCA (Lens culinaris), P02870 (protein) MASLQTQMISFYLIFLSILLTTIFFFKVNSTETTSFSITKFSPDQKNLIFQGDGYTTKGKLTLTKAVKSTVGRALYSTPIHIWDRDTGNVANFVTSFTFVIDAPSSYNVADEFTFFIAPVDTKPQTGGGYLGVFNSKEYDKTSQTVAVEFDTFYNAAWDPSNKERHIGIDVNSIKSVNTKSWNLQNGERANVVIAFNAATNVLTVTLTYPNSLEEENVTSYTLNEVVPLKDVVPEWVRIGFSATTGAEFAAHEVHSWSFHSELGGTSSSKQAADA",glycan array binding signal (z-score),[1],-0.245
same,glycan array binding signal (z-score),[2],-0.225
same,glycan array binding signal (z-score),[3],-0.205
same,glycan array binding signal (z-score),[4],-0.212
same,glycan array binding signal (z-score),[5],0.183
same,glycan array binding signal (z-score),[6],4.42
same,glycan array binding signal (z-score),[7],-0.22
same,glycan array binding signal (z-score),[8],3.71
same,glycan array binding signal (z-score),[9],-0.22
same,glycan array binding signal (z-score),[10],0.215
same,glycan array binding signal (z-score),[11],4.2
same,glycan array binding signal (z-score),[12],3.1
same,glycan array binding signal (z-score),[13],-0.206
same,glycan array binding signal (z-score),[14],3.87
same,glycan array binding signal (z-score),[15],2.63
same,glycan array binding signal (z-score),[16],-0.164
same,glycan array binding signal (z-score),[17],3.85
same,glycan array binding signal (z-score),[18],2.98
same,glycan array binding signal (z-score),[19],-0.192
same,glycan array binding signal (z-score),[20],0.106
same,glycan array binding signal (z-score),[21],0.058
same,glycan array binding signal (z-score),[22],0.068
same,glycan array binding signal (z-score),[23],-0.221
same,glycan array binding signal (z-score),[24],-0.177
same,glycan array binding signal (z-score),[25],-0.119
same,glycan array binding signal (z-score),[26],-0.192
same,glycan array binding signal (z-score),[27],-0.245
same,glycan array binding signal (z-score),[28],-0.248
same,glycan array binding signal (z-score),[29],-0.215
same,glycan array binding signal (z-score),[30],-0.239
same,glycan array binding signal (z-score),[31],-0.207
same,glycan array binding signal (z-score),[32],-0.197
same,glycan array binding signal (z-score),[33],-0.186
same,glycan array binding signal (z-score),Gal(b1-4)GlcNAc6P,-0.181
same,glycan array binding signal (z-score),Gal(b1-6)Gal,-0.19
same,glycan array binding signal (z-score),Gal3S(b1-3)GalNAc,-0.218
same,glycan array binding signal (z-score),Gal3S(b1-3)GlcNAc,-0.2
